Measurements reported in the supplement of paper PMC8728848.
This is one part of the list.

Tests used:
Assay in all cases: glycan array binding signal (z-score within array); higher = stronger binding
Conditions in all cases: glycan notation: IUPAC condensed, linker removed
Fuc(a1-3)GlcNAc = molecular target: Fuc(a1-3)GlcNAc
Outline: (§1)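 The binding signal is a Z-score computed within each array and averaged over linkers. Arrays of the same protein sequence at different concentrations or buffers were also averaged together. Data originate from 3228 arrays in the Consortium for Functional Glycomics database, kept only where the protein sequence was available.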

[1] = molecular target: Fuc(a1-3)[Gal(b1-4)]Glc6S
Outline: as §1

[2] = molecular target: Fuc(a1-3)[Gal(b1-4)]GlcNAc
Outline: as §1

[3] = molecular target: Fuc(a1-3)[Gal(b1-4)]GlcNAc(b1-2)Man
Outline: as §1

[4] = molecular target: Fuc(a1-3)[Gal(b1-4)]GlcNAc(b1-2)Man(a1-3)[Fuc(a1-3)[Gal(b1-4)]GlcNAc(b1-2)Man(a1-6)]Man(b1-4)GlcNAc(b1-4)GlcNAc
Outline: as §1

[5] = molecular target: Fuc(a1-3)[Gal(b1-4)]GlcNAc(b1-2)Man(a1-3)[Fuc(a1-3)[Gal(b1-4)]GlcNAc(b1-2)Man(a1-6)]Man(b1-4)GlcNAc(b1-4)[Fuc(a1-6)]GlcNAc
Outline: as §1

[6] = molecular target: Fuc(a1-3)[Gal(b1-4)]GlcNAc(b1-3)Gal(b1-3)[Fuc(a1-4)]GlcNAc
Outline: as §1

[7] = molecular target: Fuc(a1-3)[Gal(b1-4)]GlcNAc(b1-3)Gal(b1-4)[Fuc(a1-3)]GlcNAc
Outline: as §1

[8] = molecular target: Fuc(a1-3)[Gal(b1-4)]GlcNAc(b1-3)Gal(b1-4)[Fuc(a1-3)]GlcNAc(b1-3)Gal(b1-4)[Fuc(a1-3)]GlcNAc
Outline: as §1

[9] = molecular target: Fuc(a1-3)[Gal(b1-4)]GlcNAc(b1-3)GalNAc
Outline: as §1

[10] = molecular target: Fuc(a1-3)[Gal(b1-4)]GlcNAc(b1-6)GalNAc
Outline: as §1

[11] = molecular target: Fuc(a1-3)[Gal(b1-4)]GlcNAc(b1-6)[Gal(b1-3)GlcNAc(b1-3)]Gal(b1-4)Glc
Outline: as §1

[12] = molecular target: Fuc(a1-3)[Gal(b1-4)]GlcNAc6S
Outline: as §1

[13] = molecular target: Fuc(a1-3)[Gal3S(b1-4)]Glc
Outline: as §1

[14] = molecular target: Fuc(a1-3)[Gal3S(b1-4)]GlcNAc
Outline: as §1

[15] = molecular target: Fuc(a1-3)[Gal3S(b1-4)]GlcNAc6S
Outline: as §1

[16] = molecular target: Fuc(a1-3)[GalNAc(b1-4)]GlcNAc
Outline: as §1

[17] = molecular target: Fuc(a1-3)[GalNAc(b1-4)]GlcNAc6S
Outline: as §1

Fuc(a1-4)GlcNAc = molecular target: Fuc(a1-4)GlcNAc
Outline: as §1

Fuc(b1-3)GlcNAc = molecular target: Fuc(b1-3)GlcNAc
Outline: as §1

Gal(a1-2)Gal = molecular target: Gal(a1-2)Gal
Outline: as §1

Gal(a1-3)Gal = molecular target: Gal(a1-3)Gal
Outline: as §1

Gal(a1-3)Gal(b1-3)GlcNAc = molecular target: Gal(a1-3)Gal(b1-3)GlcNAc
Outline: as §1

[18] = molecular target: Gal(a1-3)Gal(b1-3)GlcNAc(b1-2)Man
Outline: as §1

[19] = molecular target: Gal(a1-3)Gal(b1-3)GlcNAc(b1-2)Man(a1-3)[Gal(a1-3)Gal(b1-3)GlcNAc(b1-2)Man(a1-6)]Man(b1-4)GlcNAc(b1-4)GlcNAc
Outline: as §1

[20] = molecular target: Gal(a1-3)Gal(b1-3)GlcNAc(b1-3)GalNAc
Outline: as §1

[21] = molecular target: Gal(a1-3)Gal(b1-3)GlcNAc(b1-6)GalNAc
Outline: as §1

[22] = molecular target: Gal(a1-3)Gal(b1-3)[Fuc(a1-4)]GlcNAc(b1-2)Man(a1-3)[Gal(a1-3)Gal(b1-3)[Fuc(a1-4)]GlcNAc(b1-2)Man(a1-6)]Man(b1-4)GlcNAc(b1-4)GlcNAc
Outline: as §1

Gal(a1-3)Gal(b1-4)Glc = molecular target: Gal(a1-3)Gal(b1-4)Glc
Outline: as §1

Gal(a1-3)Gal(b1-4)GlcNAc = molecular target: Gal(a1-3)Gal(b1-4)GlcNAc
Outline: as §1

B1: Cohesin-hLangerin (Homo sapiens) (protein)
chain: LDDLDAVRIKVDTVNAKPGDTVRIPVRFSGIPSKGIANCDFVYSYDPNVLEIIEIEPGDIIVDPNPDKSFDTAVYPDRKIIVFLFAEDSGTGAYAITKDGVFATIVAKVKEGAPNGLSVIKFVEVGGFANNDLVEQKTQFFDGGANVGDTTEPATPTTPVTTPTTTDDLDAASYPRFMGTISDVKTNVQLLKGRVDNISTLDSEIKKNSDGMEAAGVQIQMVNESLGYVRSQFLKLKTSVEKANAQIQILTRSWEEVSTLNAQIPELKSDLEKASALNTKIRALQGSLENMSKLLKRQNDILQVVSQGWKYFKGNFYYFSLIPKTWYSAEQFCVSRNSHLTSVTSESEQEFLYKTAGGLIYWIGLTKAGMEGDWSWVDDTPFNKVQSARFWIPGEPNNAGNNEHCGNIKAPSLQAWNDAPCDKTFLFICKRPYVPSEPHHHHHH
glycan array binding signal (z-score) (Fuc(a1-3)GlcNAc): -0.357 | glycan array binding signal (z-score) [1]: -0.346 | glycan array binding signal (z-score) [2]: -0.181 | glycan array binding signal (z-score) [3]: -0.404 | glycan array binding signal (z-score) [4]: -0.375 | glycan array binding signal (z-score) [5]: -0.411 | glycan array binding signal (z-score) [6]: -0.428 | glycan array binding signal (z-score) [7]: -0.026 | glycan array binding signal (z-score) [8]: -0.424 | glycan array binding signal (z-score) [9]: -0.398 | glycan array binding signal (z-score) [10]: -0.413 | glycan array binding signal (z-score) [11]: -0.424 | glycan array binding signal (z-score) [12]: -0.459 | glycan array binding signal (z-score) [13]: -0.365 | glycan array binding signal (z-score) [14]: -0.259 | glycan array binding signal (z-score) [15]: -0.403 | glycan array binding signal (z-score) [16]: -0.224 | glycan array binding signal (z-score) [17]: -0.405 | glycan array binding signal (z-score) (Fuc(a1-4)GlcNAc): 0.16 | glycan array binding signal (z-score) (Fuc(b1-3)GlcNAc): -0.36 | glycan array binding signal (z-score) (Gal(a1-2)Gal): -0.188 | glycan array binding signal (z-score) (Gal(a1-3)Gal): -0.38 | glycan array binding signal (z-score) (Gal(a1-3)Gal(b1-3)GlcNAc): 1.14 | glycan array binding signal (z-score) [18]: -0.432 | glycan array binding signal (z-score) [19]: -0.295 | glycan array binding signal (z-score) [20]: -0.351 | glycan array binding signal (z-score) [21]: -0.254 | glycan array binding signal (z-score) [22]: 2.81 | glycan array binding signal (z-score) (Gal(a1-3)Gal(b1-4)Glc): -0.319 | glycan array binding signal (z-score) (Gal(a1-3)Gal(b1-4)GlcNAc): -0.414
